Data taken from article PMC9911399, “Two distinct binding modes provide the RNA-binding protein RbFox with extraordinary sequence specificity”.
Residue numbers refer to the chain shown, from its start. The list shows a part of the results.

T1: RBFOX1 RRM RbFoxmut (Fox-RRM*) (Homo sapiens, UniProt Q9NWB1 109-208, R118D;E147R;N151S;E152T)
T1 sequence: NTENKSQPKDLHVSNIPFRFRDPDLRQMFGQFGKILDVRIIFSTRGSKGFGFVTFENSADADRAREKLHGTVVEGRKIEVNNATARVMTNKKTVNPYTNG

B1: GGCAAAG (DNA:RNA)
RNA: GGGAGACCGGAAUUCAGAUUGUCCGGCAAAGUUAAAUCCCGUCGUAGCCACCA
DNA 1: CAATCTGAATTCCGGTCTCCC
DNA 2: TGGTGGCTACGACGGGATT
B2: GAGUUGG (DNA:RNA)
RNA: B1 RNA with G26A, C27G, A28U, A29U, A30G
DNA 1: CAATCTGAATTCCGGTCTCCC
DNA 2: TGGTGGCTACGACGGGATT
B3: CCCUGGA (DNA:RNA)
RNA: B1 RNA with G25C, G26C, A28U, A29G, A30G, G31A
DNA 1: CAATCTGAATTCCGGTCTCCC
DNA 2: TGGTGGCTACGACGGGATT
B4: AGAGACC (DNA:RNA)
RNA: B1 RNA with G25A, C27A, A28G, A30C, G31C
DNA 1: CAATCTGAATTCCGGTCTCCC
DNA 2: TGGTGGCTACGACGGGATT
B5: AUUCUAG (DNA:RNA)
RNA: B1 RNA with G25A, G26U, C27U, A28C, A29U
DNA 1: CAATCTGAATTCCGGTCTCCC
DNA 2: TGGTGGCTACGACGGGATT
B6: CACCGCC (DNA:RNA)
RNA: B1 RNA with G25C, G26A, A28C, A29G, A30C, G31C
DNA 1: CAATCTGAATTCCGGTCTCCC
DNA 2: TGGTGGCTACGACGGGATT
B7: CGAUAGA (DNA:RNA)
RNA: B1 RNA with G25C, C27A, A28U, A30G, G31A
DNA 1: CAATCTGAATTCCGGTCTCCC
DNA 2: TGGTGGCTACGACGGGATT
B8: UUGAGCA (DNA:RNA)
RNA: B1 RNA with G25U, G26U, C27G, A29G, A30C, G31A
DNA 1: CAATCTGAATTCCGGTCTCCC
DNA 2: TGGTGGCTACGACGGGATT
B9: UUCUAAU (DNA:RNA)
RNA: B1 RNA with G25U, G26U, A28U, G31U
DNA 1: CAATCTGAATTCCGGTCTCCC
DNA 2: TGGTGGCTACGACGGGATT
B10: CGCAACC (DNA:RNA)
RNA: B1 RNA with G25C, A30C, G31C
DNA 1: CAATCTGAATTCCGGTCTCCC
DNA 2: TGGTGGCTACGACGGGATT
B11: ACCUUAA (DNA:RNA)
RNA: B1 RNA with G25A, G26C, A28U, A29U, G31A
DNA 1: CAATCTGAATTCCGGTCTCCC
DNA 2: TGGTGGCTACGACGGGATT
B12: GCUCAUU (DNA:RNA)
RNA: B1 RNA with G26C, C27U, A28C, A30U, G31U
DNA 1: CAATCTGAATTCCGGTCTCCC
DNA 2: TGGTGGCTACGACGGGATT
B13: UAAUCGC (DNA:RNA)
RNA: GGGAGACCGGAAUUCAGAUUGUCCUAAUCGCUUAAAUCCCGUCGUAGCCACCA
DNA 1: CAATCTGAATTCCGGTCTCCC
DNA 2: TGGTGGCTACGACGGGATT
B14: ACUGAUA (DNA:RNA)
RNA: B1 RNA with G25A, G26C, C27U, A28G, A30U, G31A
DNA 1: CAATCTGAATTCCGGTCTCCC
DNA 2: TGGTGGCTACGACGGGATT
B15: CGUACCC (DNA:RNA)
RNA: B1 RNA with G25C, C27U, A29C, A30C, G31C
DNA 1: CAATCTGAATTCCGGTCTCCC
DNA 2: TGGTGGCTACGACGGGATT
B16: CCAAAUA (DNA:RNA)
RNA: B1 RNA with G25C, G26C, C27A, A30U, G31A
DNA 1: CAATCTGAATTCCGGTCTCCC
DNA 2: TGGTGGCTACGACGGGATT
B17: AGUUGAC (DNA:RNA)
RNA: B1 RNA with G25A, C27U, A28U, A29G, G31C
DNA 1: CAATCTGAATTCCGGTCTCCC
DNA 2: TGGTGGCTACGACGGGATT
B18: UCGAAGG (DNA:RNA)
RNA: B1 RNA with G25U, G26C, C27G, A30G
DNA 1: CAATCTGAATTCCGGTCTCCC
DNA 2: TGGTGGCTACGACGGGATT
B19: CCGCAGA (DNA:RNA)
RNA: B1 RNA with G25C, G26C, C27G, A28C, A30G, G31A
DNA 1: CAATCTGAATTCCGGTCTCCC
DNA 2: TGGTGGCTACGACGGGATT
B20: GGGAUGC (DNA:RNA)
RNA: B1 RNA with C27G, A29U, A30G, G31C
DNA 1: CAATCTGAATTCCGGTCTCCC
DNA 2: TGGTGGCTACGACGGGATT

Biological target: T1, RBFOX1 RRM RbFoxmut (Fox-RRM*)
Assay: EMSA; HiTS-Eq, 1 nM pool, 10 min; buffer printed only for the single-RNA assays: 10 mM Tris pH 7.5, 150 mM NaCl, 3.4 mM EDTA, 0.001% NP-40, 30 C
Details: tags: His6 N-terminal (pET28a); label: 5' 32P
In short: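 Purified RbFox RRM (wild type or mutant) was equilibrated for 10 min in 50 µL with 1 nM of a 5′-radiolabelled pool of RNA with 7 randomized nucleotides, its flanks annealed to DNA oligonucleotides, across increasing protein concentrations. Free RNA was separated by 8% native PAGE, excised, reverse-transcribed, PCR-barcoded and sequenced on an Illumina HiSeq 2500. Relative association constants came from read-count changes of each variant against the control reaction, normalised to the cognate motif.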

| Binder | binding signal |
| --- | --- |
| B1 | 0.0637 KA relative to UGCAUGU |
| B2 | 0.0898 KA relative to UGCAUGU |
| B3 | 0.0858 KA relative to UGCAUGU |
| B4 | 0.0712 KA relative to UGCAUGU |
| B5 | 0.123 KA relative to UGCAUGU |
| B6 | 0.145 KA relative to UGCAUGU |
| B7 | 0.101 KA relative to UGCAUGU |
| B8 | 0.152 KA relative to UGCAUGU |
| B9 | 0.0754 KA relative to UGCAUGU |
| B10 | 0.0488 KA relative to UGCAUGU |
| B11 | 0.129 KA relative to UGCAUGU |
| B12 | 0.0844 KA relative to UGCAUGU |
| B13 | 0.0653 KA relative to UGCAUGU |
| B14 | 0.0866 KA relative to UGCAUGU |
| B15 | 0.0393 KA relative to UGCAUGU |
| B16 | 0.111 KA relative to UGCAUGU |
| B17 | 0.0906 KA relative to UGCAUGU |
| B18 | 0.0925 KA relative to UGCAUGU |
| B19 | 0.111 KA relative to UGCAUGU |
| B20 | 0.262 KA relative to UGCAUGU |
